Measurements taken from publication PMC4336329 (PLoS ONE, 2015).
Out of some 310,000 compounds screened, about 14,000 (4.5%) showed an effect of 50% or more. The effect is printed as a negative number. The list shows a part of the results.

Each compound was assayed against human ether-à-go-go-related gene (hERG) potassium channel (human, UniProt Q12809) (assay: primary screen, population patch clamp on CHO cells stably expressing hERG).
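Also: peak tail current of the secondary pulse compared with the same well before compound.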

Chain of human ether-à-go-go-related gene (hERG) potassium channel (Q12809 whole entry, looked up): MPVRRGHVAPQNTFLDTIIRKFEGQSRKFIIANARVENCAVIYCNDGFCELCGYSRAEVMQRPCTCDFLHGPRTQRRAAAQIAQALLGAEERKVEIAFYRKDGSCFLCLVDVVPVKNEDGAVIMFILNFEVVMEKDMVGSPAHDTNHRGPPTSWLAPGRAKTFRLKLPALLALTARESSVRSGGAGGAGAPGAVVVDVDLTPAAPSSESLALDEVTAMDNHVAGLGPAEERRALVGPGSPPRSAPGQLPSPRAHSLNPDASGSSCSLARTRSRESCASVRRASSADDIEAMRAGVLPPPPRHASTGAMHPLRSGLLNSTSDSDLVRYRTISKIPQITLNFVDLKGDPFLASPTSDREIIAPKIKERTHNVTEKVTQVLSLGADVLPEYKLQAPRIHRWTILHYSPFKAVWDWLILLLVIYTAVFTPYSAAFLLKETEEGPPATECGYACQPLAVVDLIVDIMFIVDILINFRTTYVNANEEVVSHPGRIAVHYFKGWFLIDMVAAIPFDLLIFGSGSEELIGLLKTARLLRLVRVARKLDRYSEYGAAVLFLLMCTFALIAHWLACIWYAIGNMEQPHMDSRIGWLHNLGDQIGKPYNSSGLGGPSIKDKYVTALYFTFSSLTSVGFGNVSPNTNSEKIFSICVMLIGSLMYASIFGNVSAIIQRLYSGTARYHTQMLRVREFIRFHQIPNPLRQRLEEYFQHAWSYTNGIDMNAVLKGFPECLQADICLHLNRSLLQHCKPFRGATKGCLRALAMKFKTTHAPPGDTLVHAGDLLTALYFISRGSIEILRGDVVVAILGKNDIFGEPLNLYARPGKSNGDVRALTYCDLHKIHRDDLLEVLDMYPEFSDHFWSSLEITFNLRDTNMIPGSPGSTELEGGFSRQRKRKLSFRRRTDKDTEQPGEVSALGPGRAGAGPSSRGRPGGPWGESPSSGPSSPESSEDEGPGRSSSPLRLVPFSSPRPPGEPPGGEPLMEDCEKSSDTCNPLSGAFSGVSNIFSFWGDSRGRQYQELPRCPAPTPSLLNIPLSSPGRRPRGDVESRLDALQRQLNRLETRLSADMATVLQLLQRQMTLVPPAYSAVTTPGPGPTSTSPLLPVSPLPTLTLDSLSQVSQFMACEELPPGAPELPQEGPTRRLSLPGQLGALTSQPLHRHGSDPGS

SMILES | hERG current change (%, negative = inhibition) at 10uM
O=C(c1ccc(COc2ccc(Cl)cc2)cc1)N1CCCCC1 | -4.5%
O=C(Nc1cc(Cl)ccc1Cl)C1CC(=O)N(c2ccccc2)C1 (centres unmarked) | 5.58%
Cc1cc(NC(=O)c2cnn3c(C(F)(F)F)cc(-c4ccccc4)nc23)no1 | -26.7%
O=c1[nH]nc(CNc2cccc(C(F)(F)F)c2)c2ccccc12 | -4.15%
CN1/C(=C\C(=O)Nc2ccc(F)cc2)C(C)(C)c2ccccc21 | 8.91%
O=C(CCc1nnc(Cc2c[nH]c3ccccc23)o1)NCC1CC12CCCCC2 (centres unmarked) | -8.61%
O=C(Nc1cc(S(=O)(=O)N2CCOCC2)ccc1N1CCCC1)C1COc2ccccc2O1 (centres unmarked) | -4.53%
Cc1cc(C)n(CCC(=O)N2CCCC(N3CCN(c4cccc(Cl)c4)CC3)C2)n1 (centres unmarked) | -30.9%
N#Cc1c(-c2ccccc2Cl)noc1/C=C/Nc1ccc(C(=O)O)cc1 | 10.2%
CCOC(=O)C1=CC[C@H]2c3c(c4ccccc4n3C)C(=O)C1N2C(=O)OC(C)(C)C | -13.2%
COc1ccc(N2CCN(c3oc(COc4ccc(Cl)cc4Cl)nc3C#N)CC2)cc1 | 6.84%
O=C(Nc1ccccc1C(=O)N/N=C/c1ccco1)c1ccccc1 | -9.23%
Cc1cccn2c(=O)nc(SCC(=O)c3ccccc3)nc12 | 0.0981%
COc1cccc(NC(=O)Cn2c(CCC(=O)O)ccc2-c2ccccc2)c1 | 15.1%
CC1C(=O)Nc2ccccc2N1C(=O)c1c(F)cccc1F (centres unmarked) | 7.05%
CNS(=O)(=O)c1cccc(C(=O)OCC(=O)NC(C)CCc2ccccc2)c1 (centres unmarked) | 5.29%
CC1(c2ccccc2)CC(C)(C)N2C(=O)Cc3cccc1c32 (centres unmarked) | -24.3%
CCN1CCN(C(=S)NCC(C)C)CC1.O=C(O)C(=O)O | 9.32%
COc1ccc(/C=C/C(=O)N(C(C)C)C(C)C)cc1Br | -4.11%
CCCC(=O)NC(Oc1ccc(C(C)=O)cc1)C(Cl)(Cl)Cl (centres unmarked) | 22%
O=C(NCCC1CCCCN1S(=O)(=O)c1ccccc1)C(=O)NCc1ccco1 (centres unmarked) | -18.7%
CCOC(=O)N1CC(=O)Nc2ccc(Br)cc2C1c1ccccc1 (centres unmarked) | -24.4%
Cc1ccc(N(CC(=O)NC(C)c2ccccc2)S(=O)(=O)c2c(C)n[nH]c2C)cc1 (centres unmarked) | -8.53%
COc1ccc(/C(O)=C2\C(=O)C(=O)N(c3cc(C)on3)C2c2ccc(OC)c(OC)c2)cc1OC (centres unmarked) | 9.15%
CCCOC1CCCN(C(=O)c2cc(Cl)c(Cl)cc2C(=O)O)C1 (centres unmarked) | 13.9%
COc1ccc(NC(=O)CCN2CCCCC2)cc1 | -1.22%
O=S(=O)(Nc1ccc(Cl)cc1)c1cccc2nsnc12 | 7.43%

SMILES | hERG current change (%, negative = inhibition) at 10uM
CCn1cc(C(=O)N(C)c2cc(C)ccc2OC)c2cc(OC)c(OC)cc2c1=O | 8.29%
C/C(=C\C(=O)N1CCc2ccccc21)C(=O)O | 18.5%
CC(=O)c1ccc(NC(=O)CSc2nc(N3CCOCC3)nc(N3CCOCC3)n2)cc1 | -7.67%
CN1CCN(CCc2nc3cc(NC(=O)COc4ccc(Cl)cc4)ccc3n2C)CC1 | -61%
CCN1/C(=C2\C(=O)N(C)C(=S)N2c2ccccc2)C=Cc2ccccc21 | -21.5%
O=C(Cc1n[nH]c(=O)c2ccccc12)Nc1cc(Cl)ccc1-n1cncn1 | -33.5%
Cc1cc(C)n(-c2ccc(C(=O)OCC(=O)Nc3ccccc3[N+](=O)[O-])cc2)n1 | -3.96%
CC1CCCN(C(=O)c2ccccc2OC2CCN(S(C)(=O)=O)CC2)C1 (centres unmarked) | 11.1%
Cc1ccc(-c2noc(CC(c3ccccc3)c3ccccc3)n2)cc1 | 5.26%
CC1(C)C2C/C(=N\O)C(C)(/[N+]([O-])=C/c3cccc([N+](=O)[O-])c3)CC21 (centres unmarked) | -10.7%
CCCOc1cccc(C(=O)N/N=C/c2coc3ccccc3c2=O)c1 | 9.86%
Nc1cccc(CCc2ccncc2)c1 | 6.19%
COc1ccc(C(=O)Nc2ccc(S(=O)(=O)NC(C)=O)cc2)cc1[N+](=O)[O-] | 19.6%
CN(C)NC(=O)C(NC(=O)c1ccc(N)cc1)C12CC3CC(CC(C3)C1)C2 (centres unmarked) | 13.9%
C[C@@H]1O[C@@H](OC[C@H]2O[C@@H](Oc3c(-c4ccc(O)c(O)c4)oc4cc(O)cc(O)c4c3=O)[C@H](O)[C@@H](O)[C@@H]2O)[C@H](O)[C@H](O)[C@H]1O | 26%
O=C(NCCC(c1ccccc1)c1ccccc1)c1cnccn1 | -12.5%
CC(=O)NC(Cc1c[nH]c2ccccc12)C(=O)Nc1ccc2c(c1)OCO2 (centres unmarked) | 5.65%
COc1ccc(-c2cc(C(=O)N3CCC4(CC3)OCCO4)c3ccccc3n2)cc1 | -16.4%
COc1ccc(OCCSc2nc(-c3ccccc3)cc(=O)[nH]2)cc1 | 20.4%
COC(=O)c1cc(OC)c(OCc2cc(C(=O)OC)oc2C)c(OC)c1 | 6.14%
O=Cc1cccn1-c1sc2c(c1C(=O)O)CCCC2 | 8.66%
Cc1ccc(N2CC(C(=O)NCc3n[nH]c(=O)c4ccccc34)CC2=O)cc1C (centres unmarked) | -13.5%
Cc1c(CC(=O)N[C@@H](C)C(=O)O)c(=O)oc2cc3oc4c(c3cc12)CCCC4 | 16.6%
C=CCn1c(SCC#N)nnc1-c1ccc2ncccc2c1 | -3.27%
CC(=O)Nc1ccc(NCC(=O)c2ccccc2)cc1 | 14.7%
CCCCCn1c(=O)c(C(=O)Nc2c(C)n(C)n(-c3ccccc3)c2=O)c(O)c2ccccc21 | 5.7%
